According to publication PMC4336329 (PLoS ONE, 2015):
Out of some 310,000 compounds screened, about 14,000 (4.5%) showed an effect of 50% or more. The effect is printed as a negative number. The list shows a part of the results.

What follows are molecules tested against human ether-à-go-go-related gene (hERG) potassium channel (human, UniProt Q12809) (assay: primary screen, population patch clamp on CHO cells stably expressing hERG).
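Note: peak tail current of the secondary pulse compared with the same well before compound.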

human ether-à-go-go-related gene (hERG) potassium channel, sequence (Q12809 whole entry, looked up): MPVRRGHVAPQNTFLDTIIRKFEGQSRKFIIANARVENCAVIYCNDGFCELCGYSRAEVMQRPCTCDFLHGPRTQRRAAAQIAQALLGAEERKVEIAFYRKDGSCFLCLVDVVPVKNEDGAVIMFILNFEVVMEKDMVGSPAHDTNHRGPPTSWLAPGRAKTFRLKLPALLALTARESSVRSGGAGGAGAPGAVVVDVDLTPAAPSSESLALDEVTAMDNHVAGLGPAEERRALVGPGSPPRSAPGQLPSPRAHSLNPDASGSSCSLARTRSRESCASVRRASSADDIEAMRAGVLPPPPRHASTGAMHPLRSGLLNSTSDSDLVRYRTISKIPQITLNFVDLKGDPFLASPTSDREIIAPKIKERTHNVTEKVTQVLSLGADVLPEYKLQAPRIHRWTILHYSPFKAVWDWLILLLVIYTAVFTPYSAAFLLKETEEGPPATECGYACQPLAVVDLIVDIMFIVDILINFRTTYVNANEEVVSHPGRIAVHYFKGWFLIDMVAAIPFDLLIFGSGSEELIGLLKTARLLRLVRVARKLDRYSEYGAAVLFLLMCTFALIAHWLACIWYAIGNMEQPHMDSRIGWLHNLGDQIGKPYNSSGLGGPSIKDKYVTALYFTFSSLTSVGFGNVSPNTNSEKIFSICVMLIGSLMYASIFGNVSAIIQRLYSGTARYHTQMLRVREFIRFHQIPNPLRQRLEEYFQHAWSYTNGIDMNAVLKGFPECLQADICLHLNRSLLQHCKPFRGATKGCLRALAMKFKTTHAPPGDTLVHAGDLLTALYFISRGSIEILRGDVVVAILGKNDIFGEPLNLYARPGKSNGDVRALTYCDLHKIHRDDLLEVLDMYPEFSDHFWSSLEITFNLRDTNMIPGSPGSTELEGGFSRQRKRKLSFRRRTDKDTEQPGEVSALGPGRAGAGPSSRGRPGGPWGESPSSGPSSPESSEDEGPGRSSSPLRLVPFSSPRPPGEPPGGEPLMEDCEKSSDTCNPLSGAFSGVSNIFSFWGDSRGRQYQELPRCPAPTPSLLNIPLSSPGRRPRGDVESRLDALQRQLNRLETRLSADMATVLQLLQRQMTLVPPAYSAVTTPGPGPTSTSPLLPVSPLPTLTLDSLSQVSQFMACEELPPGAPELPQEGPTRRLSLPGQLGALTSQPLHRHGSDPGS

Row | Compound | hERG current change (%, negative = inhibition) at 10uM [%]
1 | O=C(COC(=O)c1cc2c(s1)CCCCC2)NC1CCS(=O)(=O)C1 (stereo not shown) | -3.87
2 | COc1cccc(-n2nnnc2SCC(=O)Nc2ccccc2OC)c1 | -4.77
3 | COc1ccc(N=Cc2c(O)n(-c3cccc(C)n3)c(=O)c3ccccc23)cc1 | -32.8
4 | CCOC(=O)C1(Cc2ccccc2C)CCCN(C(=O)c2ccnn2C)C1 (stereo not shown) | -6.29
5 | CCOc1ccccc1C(C(=O)NC1CCCCC1)N(C(=O)c1csnn1)C1CC1 (stereo not shown) | -38
6 | COc1ccc(/C=N/NC(=O)c2ccc(N(C)S(=O)(=O)c3ccccc3)cc2)cc1OC | -26.9
7 | CCCC(=O)Nc1cc(OC)c(C(=O)OC)cc1Cl | 24.6
8 | CC(C)(C)c1ccc(S(=O)(=O)C(C)(C)C)cc1 | 11.6
9 | O=C(c1ccco1)N1CCCC(Nc2ccc3c(c2)OCCO3)C1 (stereo not shown) | -9.22
10 | Cc1c(-c2ccc(/C=N/NC(=O)C(=O)Nc3ccccc3F)o2)cccc1[N+](=O)[O-] | 21.1
11 | CCc1n[nH]c(=S)n1/N=C/c1ccccn1 | 19.6
12 | CCS(=O)(=O)n1nc(-c2ccccc2)nc1SCc1ccccc1 | 12.4
13 | O=C(Nn1cnc2ccccc2c1=O)c1ccc(Br)cc1 | 14.7
14 | CCCCC(=O)Nc1cccc(NC(=O)c2ccccc2Br)c1 | -4.35
15 | Cc1ccccc1C(=O)N1N=C(c2cccc(NS(C)(=O)=O)c2)CC1c1cccs1 (stereo not shown) | -6.36
16 | Cc1ccc(NS(=O)(=O)c2cccc3cccnc23)c(Br)c1 | 16
17 | COc1ccccc1NC(C)=[N+](C)CCNS(=O)(=O)c1ccc(Cl)cc1.[I-] | -58.7
18 | O=C(OCC(O)CN1CCCCC1)C12CC3CC(CC(C3)C1)C2 (stereo not shown) | -16.3
19 | NC(=S)/N=C/c1c(O)[nH]c(=O)[nH]c1=O | 12.5
20 | NS(=O)(=O)c1ccc(NC2=CC(c3ccc(F)cc3)N(c3ccc(S(N)(=O)=O)cc3)C2=O)cc1 (stereo not shown) | 0.363
21 | CC(=O)Nc1ccc(NC(=S)Nc2ccc(Br)cc2)cc1 | 1.54
22 | COC(=O)C1=C(CSc2nc3ccccc3o2)NC(=O)NC1c1cc(C)ccc1C (stereo not shown) | 1.51

Row | Compound | hERG current change (%, negative = inhibition) at 10uM [%]
23 | CC(C)c1nc(NCCO)c2nnn(Cc3ccccc3)c2n1 | 26
24 | COc1cccc(-n2nnnc2SCC(=O)NCc2ccc3c(c2)OCO3)c1 | -9.04
25 | CNC(=O)COC(=O)c1[nH]c(C)c(C(C)=O)c1C | 15.2
26 | O=C(Nc1ccc2c(c1)OCCO2)c1cccc(Cl)c1Cl | -8.58
27 | O=c1[nH]c(N2CCN(Cc3ccc4c(c3)OCO4)CC2)nc2c1CCCC2 | 5.59
28 | CC1CCCCN1c1nnc(N)s1 (stereo not shown) | 1.22
29 | COc1ccc(C(=O)C(=O)c2ccc(OCCO)cc2)cc1 | -10.6
30 | COc1ccc(NC(=O)CN(C)C(=O)c2cc(S(=O)(=O)N(C)C)ccc2N2CCCC2)cc1 | -13.8
31 | COc1cc(/C=N/NC(=O)CC23CC4CC(CC(C4)C2)C3)cc(Br)c1OCC(=O)N(C)C | -18.1
32 | O=C(NNC(=O)c1ccc[nH]1)Nc1cccc(C(F)(F)F)c1 | 15.6
33 | CN1CCN(S(=O)(=O)c2ccc(C#N)cc2)C(c2ccccc2)C1.Cl (stereo not shown) | -11
34 | Nc1c(N2CCOCC2)cc(Cl)c2nonc12 | -39.9
35 | COc1ccc(NS(=O)(=O)c2cc(NC(=O)[C@@H](NC(N)=O)C(C)C)ccc2C)cc1 | 11.9
36 | O=c1c(C=NCCN2CCNCC2)c(O)n(C2CCCCC2)c(=O)n1C1CCCCC1 | -17.8
37 | CC(C)(C)c1ccc(C(=O)NC(=S)NNC(=O)COc2ccccc2)cc1 | 15.5
38 | CC1CC(C)(C)NCCNC(C)CC(C)(C)NCCN1 (stereo not shown) | -1.39
39 | CCOC(=O)C(NC(=O)CC(C)C)(Nc1cc(C)on1)C(F)(F)F (stereo not shown) | -10.4
40 | O=C(O)c1ccc2c(c1)S(=O)(=O)c1ccccc1C2=O | 17
41 | COc1cccc(N(CC(=O)O)S(=O)(=O)c2ccccc2)c1 | 4.43
42 | O=C1CN(C(=O)/C=C/c2cc(Br)ccc2F)CCN1 | -5.51
43 | COC(=O)C1=CN(Cc2ccc(OC)cc2)C=C(C(=O)OC)C1c1ccc(O)c(OC)c1 | 12.5
44 | COC(=O)c1cc(S(=O)(=O)NCC2CCN(CCc3ccc(OC)cc3)CC2)c[nH]1 | -67

Row | Compound | hERG current change (%, negative = inhibition) at 10uM [%]
45 | COc1ccc([C@H]2CC(=O)C=C(c3ccc(Cl)c(F)c3)C2)cc1 | -13.1
46 | Cc1nnc(SCc2nnc(-c3ccc(Cl)cc3)o2)n1-c1ccccc1 | -31.9
47 | O=C(CSc1nnc(Nc2ccccc2)s1)NCc1ccco1 | -6.18
48 | Cc1cc(Cl)ccc1NC(=O)COC(=O)c1cc([N+](=O)[O-])ccc1N1CCOCC1 | -49.2
49 | CCCCCn1c(N2CCC(C(N)=O)CC2)nc2c1c(=O)[nH]c(=O)n2C | -3.45
50 | O=c1[nH]c(=S)ccn1C1OC(CO)C(O)C1O (stereo not shown) | 23
51 | O=C(CN1C(=O)NC(Cc2c[nH]c3ccccc23)C1=O)NCC(F)(F)F (stereo not shown) | 16.2
52 | CC(=O)C(Cc1cccc(F)c1)(Cc1cccc(F)c1)C(C)=O | -11.9
53 | O=C(c1ccc(S(=O)(=O)Cc2ccccc2Cl)c([N+](=O)[O-])c1)N1CCN(c2ccccn2)CC1 | -43.3
54 | CNS(=O)(=O)c1ccc(NC(=O)c2ccc(Cl)cc2Cl)cc1 | 6.79
55 | Cc1cnc(C(=O)OCC(=O)Nc2sc3c(c2C#N)CCC3)cn1 | -0.0452
56 | Cc1cc(C)n(Cc2ccc(Cl)nc2)n1 | 6.78
57 | O/N=C1\CCCCc2ccccc21 | 13.8
58 | O=C(CC(=O)NCc1ccc(Cl)cc1)NCc1ccccc1 | -3.34
59 | O=C(CSc1ccc(-c2ccc(F)cc2)nn1)NCc1ccco1 | 7.97
60 | CCc1ccc(NC(=O)CCS(=O)(=O)c2ccc3c(c2)CCN3C(C)=O)cc1 | 1.45
61 | CCN1C(=O)c2cccc3c(NC(=O)c4ccccc4)ccc1c23 | 9.37
62 | COc1ccc(NC(=O)c2cc(S(=O)(=O)N3CCCC3)ccc2OC)cc1 | 9.85
63 | N#CCNC1CC(=O)N(c2ccc(F)cc2)C1=O (stereo not shown) | -0.683
64 | CCO[C@H]1OC(C(=O)NCc2ccccc2)=C[C@@H](c2ccc3c(c2)OCO3)[C@@H]1CCCO | -9.78
65 | CC(=O)c1nc(N2C(=O)CC(Cc3ccc(C)cc3)C2=O)sc1C (stereo not shown) | 3.3
66 | NC(=O)c1ccc(NC(=O)c2ccc3c(c2)CCN3S(=O)(=O)c2ccccc2)cc1 | 21.5

Row | Compound | hERG current change (%, negative = inhibition) at 10uM [%]
67 | CCCCNC(=O)c1cnc2n(c1=O)CCS2 | -2.28
68 | Cc1ccc(C(C(=O)NC2CCCC2)N2CCCC(C)C2)cc1 (stereo not shown) | -0.601
69 | Cc1ccc(C(=O)OCC(=O)NC(=O)NCc2ccccc2)cc1C | 7.95
70 | Cc1nc(SCC(=O)CC(=O)OC(C)C)c(C#N)c(C)c1C | -9.16
71 | Nc1[nH]n(-c2ccccc2)c(=O)c1N=Nc1ccccc1[N+](=O)[O-] | 10
72 | Cc1noc(C(=O)Nc2cccc(Cl)c2)c1Cl | 16.5
73 | Cc1cc([N+](=O)[O-])cnc1Sc1nccn1C | 9.93
74 | CCC(C(=O)OC)(C(=O)OC)c1ccc([N+](=O)[O-])cc1 | -3.82
75 | CC12CCC(C(=O)N3CCN(Cc4ccccc4)CC3)(OC1=O)C2(C)C (stereo not shown) | 13.2
76 | Cc1c(C(=O)NC(=S)Nc2ccc(NC(=O)c3cccs3)cc2)cccc1[N+](=O)[O-] | -0.455
77 | CC(=C/c1ccccc1)/C=N/NC(=O)c1cc(C)oc1C | 14.4
78 | Cc1nc2ccc(NS(=O)(=O)c3ccc(F)c(C)c3)cc2[nH]1 | -14.8
79 | CCN(C(=O)Cn1nc(C)c([N+](=O)[O-])c1C)c1c(N)n(Cc2ccccc2)c(=O)[nH]c1=O | 9.02
80 | Cn1c(=O)[nH]c(=O)c2c1nc(N1CCCCC1)n2C/C=N/Nc1ccc(C(=O)O)cc1 | 7.95
81 | CC(C)c1ccc(N2C(=O)C3C4C=CC(CC4)C3C2=O)cc1 (stereo not shown) | 20.2
82 | N/C(Cc1ccc(Cl)cc1Cl)=N\OC(=O)c1ccccc1F | -27.4
83 | Cc1ccc(Cn2c(C(C)Nc3nc(-c4ccc(F)cc4)cs3)nc3cc(C(=O)NCCCO)ccc32)cc1 (stereo not shown) | -2.66
84 | CN(C)c1ccc(C=NCCC2(O)CCOC(C)(C)C2)cc1 (stereo not shown) | 9.28
85 | CCc1ccc(CNC(=O)C2CCCN(c3nc4ccccc4o3)C2)cc1 (stereo not shown) | -11
86 | O=C1C(=O)N(Cc2cccnc2)C(c2cccc([N+](=O)[O-])c2)/C1=C(/O)c1ccc2c(c1)OCO2 (stereo not shown) | 13
87 | CCOCCCNC(=O)c1ccc(CS(=O)(=O)Cc2cccc(C)c2)o1 | 9.45
88 | O=C(N/C(=C/c1ccccc1)C(=O)N1CCCCC1)c1ccccc1 | 29.9
